The text below walks through data of article PMC12820563.

The other results are listed elsewhere or left out. The list includes weakly bound sequences.

The test addresses T1, MBP-FoxP3dN (UniProt Q99JB6).
T1 sequence: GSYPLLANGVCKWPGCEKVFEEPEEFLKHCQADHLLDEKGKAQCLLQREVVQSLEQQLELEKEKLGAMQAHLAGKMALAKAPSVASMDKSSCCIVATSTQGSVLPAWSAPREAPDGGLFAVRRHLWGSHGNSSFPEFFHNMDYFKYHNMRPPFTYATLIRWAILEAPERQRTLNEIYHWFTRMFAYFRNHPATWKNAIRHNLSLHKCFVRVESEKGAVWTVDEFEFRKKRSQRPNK
In words: PD-seq (MBP pull-down with sequencing). To be noted: 20 mM Tris-HCl pH 7.5, 100 mM NaCl, 1.5 mM MgCl2, 0.4 uM protein, 0.1 uM dsDNA library, 30 min, room temperature, amylose pull-down; high values mean tight binding; double strand, one strand shown.
Consider “GATGATTGTTCTCCCAGCTGATGAATTCTATGTCTCGAGTAAACAAATTTTCCTAATCTTTCTGTTCAAGCGCCATCTAC”, for which the binding signal (RPM ratio (pull-down/input)) stood at 0.989. Then “GATGATTGTTCTCCCAGCTGATGAATTGTCCCGATCGAGTAAACAAATTTTCCTAATCTTTCTGTTCAAGCGCCATCTAC”, with 0.266; and “GATGATTGTTCTCCCAGCTGATGAATTTGTGTATTCGAGTAAACAAATTTTCCTAATCTTTCTGTTCAAGCGCCATCTAC”, with 6.95; and “GATGATTGTTCTCCCAGCTGATGAATTCCTTGCATCGAGTAAACAAATTTTCCTAATCTTTCTGTTCAAGCGCCATCTAC”, with 0.828. Turning to “GATGATTGTTCTCCCAGCTGATGAATTTAGAATATCGAGTAAACAAATTTTCCTAATCTTTCTGTTCAAGCGCCATCTAC”, the binding signal (RPM ratio (pull-down/input)) was found to be 0.513. As to “GATGATTGTTCTCCCAGCTGATGAATTAACCCCCTCGAGTAAACAAATTTTCCTAATCTTTCTGTTCAAGCGCCATCTAC”, the binding signal (RPM ratio (pull-down/input)) was found to be 0.257.

Turning to “GATGATTGTTCTCCCAGCTGATGAATTATTCATTTCGAGTAAACAAATTTTCCTAATCTTTCTGTTCAAGCGCCATCTAC”, the binding signal (RPM ratio (pull-down/input)) worked out at 0.406. Consider “GATGATTGTTCTCCCAGCTGATGAATTTGACGGTTCGAGTAAACAAATTTTCCTAATCTTTCTGTTCAAGCGCCATCTAC”, for which the binding signal (RPM ratio (pull-down/input)) stood at 0.564. The same measure for “GATGATTGTTCTCCCAGCTGATGAATTCGGCGAGTCGAGTAAACAAATTTTCCTAATCTTTCTGTTCAAGCGCCATCTAC”: 0.586; for “GATGATTGTTCTCCCAGCTGATGAATTGGCGGTGTCGAGTAAACAAATTTTCCTAATCTTTCTGTTCAAGCGCCATCTAC”: 0.567; for “GATGATTGTTCTCCCAGCTGATGAATTTCGATGTTCGAGTAAACAAATTTTCCTAATCTTTCTGTTCAAGCGCCATCTAC”: 1.93. The same measure for “GATGATTGTTCTCCCAGCTGATGAATTGTGCGGGTCGAGTAAACAAATTTTCCTAATCTTTCTGTTCAAGCGCCATCTAC”: 1.39; for “GATGATTGTTCTCCCAGCTGATGAATTCCACACGTCGAGTAAACAAATTTTCCTAATCTTTCTGTTCAAGCGCCATCTAC”: 0.3; for “GATGATTGTTCTCCCAGCTGATGAATTGTGAGACTCGAGTAAACAAATTTTCCTAATCTTTCTGTTCAAGCGCCATCTAC”: 1.14. Then “GATGATTGTTCTCCCAGCTGATGAATTGACGGAATCGAGTAAACAAATTTTCCTAATCTTTCTGTTCAAGCGCCATCTAC”, with 0.235. As to “GATGATTGTTCTCCCAGCTGATGAATTGATCAATTCGAGTAAACAAATTTTCCTAATCTTTCTGTTCAAGCGCCATCTAC”, the binding signal (RPM ratio (pull-down/input)) worked out at 0.406.

With “GATGATTGTTCTCCCAGCTGATGAATTGTTTTCCTCGAGTAAACAAATTTTCCTAATCTTTCTGTTCAAGCGCCATCTAC”, the binding signal (RPM ratio (pull-down/input)) came out at 4.78. “GATGATTGTTCTCCCAGCTGATGAATTGGACATGTCGAGTAAACAAATTTTCCTAATCTTTCTGTTCAAGCGCCATCTAC”: the binding signal (RPM ratio (pull-down/input)) came to 0.49. The same measure for “GATGATTGTTCTCCCAGCTGATGAATTCAGCCCCTCGAGTAAACAAATTTTCCTAATCTTTCTGTTCAAGCGCCATCTAC”: 0.978; for “GATGATTGTTCTCCCAGCTGATGAATTACTTTCCTCGAGTAAACAAATTTTCCTAATCTTTCTGTTCAAGCGCCATCTAC”: 0.377.

For “GATGATTGTTCTCCCAGCTGATGAATTACTAGTCTCGAGTAAACAAATTTTCCTAATCTTTCTGTTCAAGCGCCATCTAC”, the binding signal (RPM ratio (pull-down/input)) stood at 0.398. Then “GATGATTGTTCTCCCAGCTGATGAATTGGCGAGTTCGAGTAAACAAATTTTCCTAATCTTTCTGTTCAAGCGCCATCTAC”, with 0.515.

With “GATGATTGTTCTCCCAGCTGATGAATTTGTGAACTCGAGTAAACAAATTTTCCTAATCTTTCTGTTCAAGCGCCATCTAC”, the binding signal (RPM ratio (pull-down/input)) amounted to 1.35. “GATGATTGTTCTCCCAGCTGATGAATTCCCATCCTCGAGTAAACAAATTTTCCTAATCTTTCTGTTCAAGCGCCATCTAC”: the binding signal (RPM ratio (pull-down/input)) amounted to 0.33.

On to “GATGATTGTTCTCCCAGCTGATGAATTAGACCCGTCGAGTAAACAAATTTTCCTAATCTTTCTGTTCAAGCGCCATCTAC”, for which the binding signal (RPM ratio (pull-down/input)) came out at 0.299. Consider “GATGATTGTTCTCCCAGCTGATGAATTCAGGAAATCGAGTAAACAAATTTTCCTAATCTTTCTGTTCAAGCGCCATCTAC”, for which the binding signal (RPM ratio (pull-down/input)) is 0.225. Regarding “GATGATTGTTCTCCCAGCTGATGAATTACTGTTCTCGAGTAAACAAATTTTCCTAATCTTTCTGTTCAAGCGCCATCTAC”, the binding signal (RPM ratio (pull-down/input)) turned out to be 0.662. The same measure for “GATGATTGTTCTCCCAGCTGATGAATTATGGATGTCGAGTAAACAAATTTTCCTAATCTTTCTGTTCAAGCGCCATCTAC”: 0.621; for “GATGATTGTTCTCCCAGCTGATGAATTGGCCCTGTCGAGTAAACAAATTTTCCTAATCTTTCTGTTCAAGCGCCATCTAC”: 0.25. Then “GATGATTGTTCTCCCAGCTGATGAATTTAAAGGTTCGAGTAAACAAATTTTCCTAATCTTTCTGTTCAAGCGCCATCTAC”, with 0.283; and “GATGATTGTTCTCCCAGCTGATGAATTCTTCTGATCGAGTAAACAAATTTTCCTAATCTTTCTGTTCAAGCGCCATCTAC”, with 0.204; and “GATGATTGTTCTCCCAGCTGATGAATTGTGGATGTCGAGTAAACAAATTTTCCTAATCTTTCTGTTCAAGCGCCATCTAC”, with 0.811. The same measure for “GATGATTGTTCTCCCAGCTGATGAATTTAGAGTGTCGAGTAAACAAATTTTCCTAATCTTTCTGTTCAAGCGCCATCTAC”: 1.26; for “GATGATTGTTCTCCCAGCTGATGAATTACGGAACTCGAGTAAACAAATTTTCCTAATCTTTCTGTTCAAGCGCCATCTAC”: 0.299. Take “GATGATTGTTCTCCCAGCTGATGAATTACTGGGATCGAGTAAACAAATTTTCCTAATCTTTCTGTTCAAGCGCCATCTAC”: the binding signal (RPM ratio (pull-down/input)) is 0.247. Then “GATGATTGTTCTCCCAGCTGATGAATTCGCGAGTTCGAGTAAACAAATTTTCCTAATCTTTCTGTTCAAGCGCCATCTAC”, with 0.522; and “GATGATTGTTCTCCCAGCTGATGAATTCCTCCTCTCGAGTAAACAAATTTTCCTAATCTTTCTGTTCAAGCGCCATCTAC”, with 0.235. With “GATGATTGTTCTCCCAGCTGATGAATTCATAGCGTCGAGTAAACAAATTTTCCTAATCTTTCTGTTCAAGCGCCATCTAC”, the binding signal (RPM ratio (pull-down/input)) was 0.723.

As to “GATGATTGTTCTCCCAGCTGATGAATTAAGCTTTTCGAGTAAACAAATTTTCCTAATCTTTCTGTTCAAGCGCCATCTAC”, the binding signal (RPM ratio (pull-down/input)) came to 2.69. Regarding “GATGATTGTTCTCCCAGCTGATGAATTGCGGCCGTCGAGTAAACAAATTTTCCTAATCTTTCTGTTCAAGCGCCATCTAC”, the binding signal (RPM ratio (pull-down/input)) turned out to be 0.756. As for “GATGATTGTTCTCCCAGCTGATGAATTAGTTCTGTCGAGTAAACAAATTTTCCTAATCTTTCTGTTCAAGCGCCATCTAC”, the binding signal (RPM ratio (pull-down/input)) was 0.398. As to “GATGATTGTTCTCCCAGCTGATGAATTTTCTATATCGAGTAAACAAATTTTCCTAATCTTTCTGTTCAAGCGCCATCTAC”, the binding signal (RPM ratio (pull-down/input)) came out at 0.33. As for “GATGATTGTTCTCCCAGCTGATGAATTTTTACAGTCGAGTAAACAAATTTTCCTAATCTTTCTGTTCAAGCGCCATCTAC”, the binding signal (RPM ratio (pull-down/input)) came to 0.211. Consider “GATGATTGTTCTCCCAGCTGATGAATTGATGACTTCGAGTAAACAAATTTTCCTAATCTTTCTGTTCAAGCGCCATCTAC”, for which the binding signal (RPM ratio (pull-down/input)) was determined as 0.689.

Consider “GATGATTGTTCTCCCAGCTGATGAATTCGCGGAGTCGAGTAAACAAATTTTCCTAATCTTTCTGTTCAAGCGCCATCTAC”, for which the binding signal (RPM ratio (pull-down/input)) was determined as 0.23.

“GATGATTGTTCTCCCAGCTGATGAATTGCTCCGGTCGAGTAAACAAATTTTCCTAATCTTTCTGTTCAAGCGCCATCTAC”: the binding signal (RPM ratio (pull-down/input)) came out at 0.297. Regarding “GATGATTGTTCTCCCAGCTGATGAATTAGTGATCTCGAGTAAACAAATTTTCCTAATCTTTCTGTTCAAGCGCCATCTAC”, the binding signal (RPM ratio (pull-down/input)) turned out to be 1.85. As to “GATGATTGTTCTCCCAGCTGATGAATTTTTATATTCGAGTAAACAAATTTTCCTAATCTTTCTGTTCAAGCGCCATCTAC”, the binding signal (RPM ratio (pull-down/input)) was 0.437. As to “GATGATTGTTCTCCCAGCTGATGAATTCTCAGCGTCGAGTAAACAAATTTTCCTAATCTTTCTGTTCAAGCGCCATCTAC”, the binding signal (RPM ratio (pull-down/input)) came to 0.353.

Turning to “GATGATTGTTCTCCCAGCTGATGAATTATAGGGATCGAGTAAACAAATTTTCCTAATCTTTCTGTTCAAGCGCCATCTAC”, the binding signal (RPM ratio (pull-down/input)) stood at 0.326. In the case of “GATGATTGTTCTCCCAGCTGATGAATTGAAGCCATCGAGTAAACAAATTTTCCTAATCTTTCTGTTCAAGCGCCATCTAC”, the binding signal (RPM ratio (pull-down/input)) was 0.96. For “GATGATTGTTCTCCCAGCTGATGAATTAGCGTGTTCGAGTAAACAAATTTTCCTAATCTTTCTGTTCAAGCGCCATCTAC”, the binding signal (RPM ratio (pull-down/input)) is 1.39. As to “GATGATTGTTCTCCCAGCTGATGAATTTAAGCTCTCGAGTAAACAAATTTTCCTAATCTTTCTGTTCAAGCGCCATCTAC”, the binding signal (RPM ratio (pull-down/input)) stood at 0.364.

With “GATGATTGTTCTCCCAGCTGATGAATTACGGCACTCGAGTAAACAAATTTTCCTAATCTTTCTGTTCAAGCGCCATCTAC”, the binding signal (RPM ratio (pull-down/input)) is 0.554. In the case of “GATGATTGTTCTCCCAGCTGATGAATTCGTCTGTTCGAGTAAACAAATTTTCCTAATCTTTCTGTTCAAGCGCCATCTAC”, the binding signal (RPM ratio (pull-down/input)) was 0.639. The same measure for “GATGATTGTTCTCCCAGCTGATGAATTAAGGTGATCGAGTAAACAAATTTTCCTAATCTTTCTGTTCAAGCGCCATCTAC”: 0.481.

For “GATGATTGTTCTCCCAGCTGATGAATTAACGACATCGAGTAAACAAATTTTCCTAATCTTTCTGTTCAAGCGCCATCTAC”, the binding signal (RPM ratio (pull-down/input)) amounted to 0.615. Then “GATGATTGTTCTCCCAGCTGATGAATTTTGGCAGTCGAGTAAACAAATTTTCCTAATCTTTCTGTTCAAGCGCCATCTAC”, with 0.443.

Turning to “GATGATTGTTCTCCCAGCTGATGAATTGAAATGATCGAGTAAACAAATTTTCCTAATCTTTCTGTTCAAGCGCCATCTAC”, the binding signal (RPM ratio (pull-down/input)) came out at 0.287. Turning to “GATGATTGTTCTCCCAGCTGATGAATTGGAAGGGTCGAGTAAACAAATTTTCCTAATCTTTCTGTTCAAGCGCCATCTAC”, the binding signal (RPM ratio (pull-down/input)) came to 0.225. “GATGATTGTTCTCCCAGCTGATGAATTTTTCCAATCGAGTAAACAAATTTTCCTAATCTTTCTGTTCAAGCGCCATCTAC”: the binding signal (RPM ratio (pull-down/input)) came out at 0.304.

For the sequence “GATGATTGTTCTCCCAGCTGATGAATTATCGGCGTCGAGTAAACAAATTTTCCTAATCTTTCTGTTCAAGCGCCATCTAC”, the binding signal (RPM ratio (pull-down/input)) turned out to be 0.48. In the case of “GATGATTGTTCTCCCAGCTGATGAATTAGCGGAATCGAGTAAACAAATTTTCCTAATCTTTCTGTTCAAGCGCCATCTAC”, the binding signal (RPM ratio (pull-down/input)) stood at 0.214.
